# Data reported in the supplement of paper PMC12217912.
# This is one part of the list. The full chains were built here from the parent and the listed change. Values near 0.05 are background.
# B1: TEV protease; numbered along this chain (parent)
# chain: MGESLFKGPRDYNPISSSICHLTNESDGHTTSLYGIGFGPFIITNKHLFRRNNGTLVVQSLHGVFKVKDTTTLQQHLVDGRDMIIIRMPKDFPPFPQKLKFREPQREERICLVTTNFQTKSMSSMVSDTSCTFPSGDGIFWKHWIQTKDGQCGSPLVSTRDGFIVGIHSASNFTNTNNYFTSVPKNFMELLTNQEAQQWVSGWRLNADSVLWGGHKVFMVKPEEPFQPVKEATQL
# Variants of: B1
# Assay: raw area under fraction-flipped curve 0-4 h after induction (AUC4h, not background-subtracted), DNA-recorder readout of cleavage of the substrate (dimensionless); higher = more cleavage of the substrate by the protease variant
# Conditions: temperature: 34 °C; time window: 0-4 h after rhamnose induction
# Procedure: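 In vivo DNA recorder in E. coli TOP10(DE3) ΔrhaA at 34 °C. Each TEVp single-site mutant (parent TEVp 0) is paired with a single-site variant of the 7-mer TEVs (canonical ENLYFQ|S). The substrate sits between flexible linkers in a Bxb1-sfGFP-TEVs-SsrA fusion, so cleavage stabilises Bxb1 and speeds flipping of a recombination array, read by NGS. The value is the raw area under the fraction-flipped curve over 0-4 h after rhamnose induction (AUC4h), with ≥20 reads per time point. It is not background-subtracted; inactive controls average about 0.047.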
# 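Further: Bxb1 expression induced with 0.2% (w/v) L-rhamnose at OD600 near 0.5, cultures sampled hourly, flipped fraction per protease–substrate barcode pair counted by paired-end Illumina sequencing.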
Variant,area with substrate ENLYFQA,area with substrate ENLYFQC,area with substrate ENLYFQD,area with substrate ENLYFQE,area with substrate ENLYFQF,area with substrate ENLYFQG,area with substrate ENLYFQH,area with substrate ENLYFQI,area with substrate ENLYFQK,area with substrate ENLYFQL,area with substrate ENLYFQN,area with substrate ENLYFQP,area with substrate ENLYFQQ,area with substrate ENLYFQR,area with substrate ENLYFQS,area with substrate ENLYFQT,area with substrate ENLYFQV,area with substrate ENLYFQW,area with substrate ENLYFQM,area with substrate ENLYFQY
MGESLFKGPRDYNPISSSICHLTNESDGHTTSLYGIGFGPFIITNKHLFRRNNGTLVVQSLHGVFKVKDTTTLQQHLVDGRDMIIIRMPKDFPPFPQKLKFREPQREERICLVTTNFQTKSMSSMVSDTSCTFPSGDGIFWKHWIQTKDGQCGSPMVSTRDGFIVGIHSASNFTNTNNYFTSVPKNFMELLTNQEAQQWVSGWRLNADSVLWGGHKVFMVKPEEPFQPVKEATQL [L156M],0.0978,0.0957,0.0745,0.0513,0.09,0.0878,0.0821,0.0628,0.0677,0.0623,0.0745,0.0691,0.0844,0.0631,0.0945,0.0765,0.0528,0.0675,–,–
MGESLFKGPRDYNPISSSICHLTNESDGHTTSLYGIGFGPFIITNKHLFRRNNGTLVVQSLHGVFKVKDTTTLQQHLVDGRDMIIIRMPKDFPPFPQKLKFREPQREERICLVTTNFQTKSMSSMVSDTSCTFPSGDGIFWKHWIQTKDGQCGSPLVSTRDGFIVGIHSASNFTNTNNYFTSVPKNFMELLTNQEAQQWVSGCRLNADSVLWGGHKVFMVKPEEPFQPVKEATQL [W203C],0.0504,0.0668,0.0569,0.0574,–,–,0.0427,0.0531,0.062,0.0527,0.0447,–,0.0601,0.0651,0.0653,0.0293,0.0597,–,0.0623,0.0571
MGESLFKGPRDYNPIWSSICHLTNESDGHTTSLYGIGFGPFIITNKHLFRRNNGTLVVQSLHGVFKVKDTTTLQQHLVDGRDMIIIRMPKDFPPFPQKLKFREPQREERICLVTTNFQTKSMSSMVSDTSCTFPSGDGIFWKHWIQTKDGQCGSPLVSTRDGFIVGIHSASNFTNTNNYFTSVPKNFMELLTNQEAQQWVSGWRLNADSVLWGGHKVFMVKPEEPFQPVKEATQL [S16W],0.133,0.117,0.0612,–,0.077,0.099,–,–,0.0593,0.0582,0.0677,–,0.0769,–,0.103,0.0664,0.0431,0.0751,0.112,–
MGESLFKGPRDYNPISSSICHLTNESDGHTTSLYGIGFGPFIITNKHLFRRNNGTLVVQSLHGVFKVKDTTTLQQHLVDGRDMIIIRMPKDFPPFPQKLKFREPQREERICLVTTNFQTKSMSSMVSDTSCTFPSGDGIFWKHWIQTKDGQCGSPLVSTRDGFIVGIHSASNFTNTNNYFTSVPKNFMELLTNQEAQQWVSGWRLNADSVLWGAHKVFMVKPEEPFQPVKEATQL [G214A],0.0589,0.112,–,–,0.086,0.0861,–,0.064,0.0656,–,0.0642,0.0605,–,0.0705,0.0932,0.0602,–,0.0513,0.0647,0.0469
MGESLFKGPRDENPISSSICHLTNESDGHTTSLYGIGFGPFIITNKHLFRRNNGTLVVQSLHGVFKVKDTTTLQQHLVDGRDMIIIRMPKDFPPFPQKLKFREPQREERICLVTTNFQTKSMSSMVSDTSCTFPSGDGIFWKHWIQTKDGQCGSPLVSTRDGFIVGIHSASNFTNTNNYFTSVPKNFMELLTNQEAQQWVSGWRLNADSVLWGGHKVFMVKPEEPFQPVKEATQL [Y12E],0.106,0.145,0.0864,0.0762,–,–,0.101,–,0.038,0.0789,0.0829,0.072,–,0.06,0.0983,0.0684,–,0.0637,0.0786,0.0792
MGESLFKGPRDYNPISSSICHLTNESDGHTTSLYGIGFGPFIITNKHLFRRNNGTLVVQSLHGVFKVKDTTTLQQHLVDGRFMIIIRMPKDFPPFPQKLKFREPQREERICLVTTNFQTKSMSSMVSDTSCTFPSGDGIFWKHWIQTKDGQCGSPLVSTRDGFIVGIHSASNFTNTNNYFTSVPKNFMELLTNQEAQQWVSGWRLNADSVLWGGHKVFMVKPEEPFQPVKEATQL [D82F],0.0501,0.0445,0.0402,–,0.0532,–,0.0489,0.0517,0.0705,0.0507,0.0462,0.0496,–,0.0472,0.0558,0.0653,–,0.0427,0.0461,0.046
MGESLFKGPRDYNPISSSICHLTNESDGHTTSLYGIGFGPFIITNKHLFRRNNGTLVVQSLHGVFKVKDTTTLQQHLVDGRDMIIIRMPKDFPPFPQKLKFREPQREERICLVTTNFQTKSMSSMVSDTSCTFPSGDGIFWKHWIQTKDGQCGSPLVSTRDGFWVGIHSASNFTNTNNYFTSVPKNFMELLTNQEAQQWVSGWRLNADSVLWGGHKVFMVKPEEPFQPVKEATQL [I164W],0.0475,–,–,–,–,–,–,–,0.0453,0.0461,0.0533,0.0571,–,0.0567,0.0575,–,0.0595,0.0371,0.0603,–
MGESLFKGPRDYNPISSSICHLTNESDGHTTSLYGIGFGPFIITNKHLFRRNNGTLVVQSLHGVFKVKDTTTLQQHLVDGRDMIIIRMPKDFPPFPQKLKFREPQREERICLVTTNFQTKSMSSMVSDTSCTFPSGDGIFWKHWIQTKDGQCGSPLVSTRDGFIVGIHSASNFTNTNNYFTSVPKNFMELLTNQEAQQWVSGWRLNADSVLFGGHKVFMVKPEEPFQPVKEATQL [W212F],0.121,0.107,–,–,–,–,0.114,0.0695,0.0629,–,0.0982,–,0.0063,–,0.121,0.0478,–,0.0773,0.0845,–
MGESLFKGPRDYNPISSSICHLTNESDGHTTSLYGIGFGPFIITNKHLFRRNNTTLVVQSLHGVFKVKDTTTLQQHLVDGRDMIIIRMPKDFPPFPQKLKFREPQREERICLVTTNFQTKSMSSMVSDTSCTFPSGDGIFWKHWIQTKDGQCGSPLVSTRDGFIVGIHSASNFTNTNNYFTSVPKNFMELLTNQEAQQWVSGWRLNADSVLWGGHKVFMVKPEEPFQPVKEATQL [G54T],0.0626,0.0772,0.0768,0.0627,–,0.0567,0.063,0.0592,0.0419,0.0651,0.0677,0.0494,0.0567,0.0526,0.0775,0.0495,–,0.0576,0.0647,0.055
MGESLFKGPRDYNPISSSICHLTNESDGHTTSLYGIGFGPFIITNKHLFRRNNYTLVVQSLHGVFKVKDTTTLQQHLVDGRDMIIIRMPKDFPPFPQKLKFREPQREERICLVTTNFQTKSMSSMVSDTSCTFPSGDGIFWKHWIQTKDGQCGSPLVSTRDGFIVGIHSASNFTNTNNYFTSVPKNFMELLTNQEAQQWVSGWRLNADSVLWGGHKVFMVKPEEPFQPVKEATQL [G54Y],0.0613,0.0885,–,–,0.0514,0.0689,0.0605,0.0557,0.0576,0.0547,–,0.0479,–,0.0668,0.0726,0.0588,0.0769,0.0658,0.0612,0.0585
MGESLFKGPRDYNPISSSICHLTNESDGHTTSLYGIGFGPFIITNKHLFRRNNGTLVVQSLHGVFKVKDTTTLQQHLVDGRDMIIIRMPKDFPPFPQKLKFREPQREERICLVTTNFQTKSMSSMVSDTSCTFPSGDGIFWKHWIQTKDGQCGSPLVSTRDGFIVGIHSASNFTNTNNYFTSVPINFMELLTNQEAQQWVSGWRLNADSVLWGGHKVFMVKPEEPFQPVKEATQL [K185I],0.108,–,–,–,–,–,0.0854,0.0593,0.0704,0.063,0.0837,0.0759,–,0.0499,0.107,–,–,0.079,0.172,0.0416
MGESLFKGPRDYNPISSSICHLTNESDGHTTSLYGIGFGPFIITNKHLFRRNNGTLVVQSLHGVFKVKDTTTLQQHLVDGRDMIIIRMPKDFPPFPQKLKFREPQREERICLVTTNFQTKSMSSMVSDTSCTFPSGDGIFGKHWIQTKDGQCGSPLVSTRDGFIVGIHSASNFTNTNNYFTSVPKNFMELLTNQEAQQWVSGWRLNADSVLWGGHKVFMVKPEEPFQPVKEATQL [W141G],0.0482,0.0478,0.0514,–,–,0.0603,0.0442,0.0497,0.0986,0.056,0.0704,0.0538,–,0.0532,0.0575,0.052,–,0.0516,0.0417,0.0774
MGESLFKGPRDYNPISSSICHLTNESDGHTTSLYGIGFGPFNITNKHLFRRNNGTLVVQSLHGVFKVKDTTTLQQHLVDGRDMIIIRMPKDFPPFPQKLKFREPQREERICLVTTNFQTKSMSSMVSDTSCTFPSGDGIFWKHWIQTKDGQCGSPLVSTRDGFIVGIHSASNFTNTNNYFTSVPKNFMELLTNQEAQQWVSGWRLNADSVLWGGHKVFMVKPEEPFQPVKEATQL [I42N],0.0358,0.047,–,–,–,–,0.0609,0.036,0.0449,0.0468,0.0324,0.0481,–,0.0316,0.0428,0.0437,0.0272,0.0469,0.0393,–
MGESLFKGPRDYNPISSSICHLTNESDGHTTSLYGIGFGPFIITNKHLFRRNNGTLVVQSLHGVFKVKDTTTLQQHLVDGRDMIIIRMPKDFPPFPQKLKFREPQREERICLVTTNFQTKSMSSMVSDTSCTFPSGDGIFWKHWIQTKDGQCGSPLVSTRDGFIVGIHSASNFTNTNNYFTSVPKNFMELLTNQEAQQWVSGWQLNADSVLWGGHKVFMVKPEEPFQPVKEATQL [R204Q],0.101,0.127,0.0739,–,0.087,0.119,0.108,0.0603,0.0859,0.0648,0.0835,0.0583,0.059,0.0549,0.118,0.0795,0.0582,0.0669,0.0932,0.0907
MGESLFKGPRDYNPISSSICHLTNESDGHTTSLYGIGFGPFIITNKHLFRRNNGTLVVQSLHGVFKVQDTTTLQQHLVDGRDMIIIRMPKDFPPFPQKLKFREPQREERICLVTTNFQTKSMSSMVSDTSCTFPSGDGIFWKHWIQTKDGQCGSPLVSTRDGFIVGIHSASNFTNTNNYFTSVPKNFMELLTNQEAQQWVSGWRLNADSVLWGGHKVFMVKPEEPFQPVKEATQL [K68Q],0.108,0.13,–,–,–,–,0.0659,0.0614,0.072,0.0647,0.0914,0.0496,0.0977,0.057,0.106,0.0648,0.0576,0.0632,–,0.0886
MGESLFKGPRDYNPISSSICHLTNESDGHTTSLYGIGFGPFIITNKHLFRRNNGTLVVQSLHGVFKVKDTTTLQQHLVDGRDMIIIRMPKDFPPFPQKLKFREPQREERICLATTNFQTKSMSSMVSDTSCTFPSGDGIFWKHWIQTKDGQCGSPLVSTRDGFIVGIHSASNFTNTNNYFTSVPKNFMELLTNQEAQQWVSGWRLNADSVLWGGHKVFMVKPEEPFQPVKEATQL [V113A],0.0888,0.128,0.0776,–,–,0.0836,0.0827,0.0354,0.0529,0.0576,–,–,0.0877,0.0645,0.0923,0.0556,–,0.0609,0.075,–
MGESLFKGWRDYNPISSSICHLTNESDGHTTSLYGIGFGPFIITNKHLFRRNNGTLVVQSLHGVFKVKDTTTLQQHLVDGRDMIIIRMPKDFPPFPQKLKFREPQREERICLVTTNFQTKSMSSMVSDTSCTFPSGDGIFWKHWIQTKDGQCGSPLVSTRDGFIVGIHSASNFTNTNNYFTSVPKNFMELLTNQEAQQWVSGWRLNADSVLWGGHKVFMVKPEEPFQPVKEATQL [P9W],0.112,0.137,0.0483,–,–,0.0859,0.0767,0.0533,0.0648,0.0618,–,0.0456,–,0.0626,0.104,–,0.0377,0.0532,0.0984,0.0706
